Experimental data reported in PubChem BioAssay (NCATS).
The inconclusive results got no clear call from the source; some entries with a clear call stand among them for comparison. Potencies of inconclusive entries are doubtful fits and often do not repeat. Calls of active or inactive are those of the source. The call rests on the fitted dose curve; in most records, active means well fitted cell-killing curve with a large enough effect; inconclusive means small, poorly fitted or top-dose-only effect, or effect the other way; inactive means no such curve, though single readings can be large or run the other way.

experiment: Viability qHTS for spleen associated tyrosine kinase inhibitor (SYKi) naive MV4-11 cells (AID 1963823); conditions: MV4-11 AML viability, CellTiter-Glo luminescence, 72 h; viability (% of control): at 45 µM (top of the series); further: nearly all actives have a fitted effect of over 40% in size
Method in brief: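 CellTiter-Glo luminescence, 10 min room-temperature incubation, gave viability. Cells: naive MV4-11 (500/well), treated 72 hr at 37 C, 5% CO2.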
Potency means the concentration at half of the fitted maximal effect; tags describe the fitted curve by direction and shape.

Row | SMILES | viability (% of control) | Potency
1 | COc1cc(C(=O)N2CCCCCCC2)cc(OC)c1OC | inactive: 56.8% | –
2 | CC(C(=O)Nc1cc(C#N)ccc1CCCC(=O)O)c1ccc(F)c2ccccc12 (stereo not given) | – | inconclusive: 18.4 µM [cytotoxic, single point]
3 | COc1ncc2cc(C(=O)Nc3cc(C(=O)NCc4cccc(Cl)c4)ccc3Cl)c(=O)[nH]c2n1 | – | inconclusive: 3.26 µM [cytotoxic, full curve]
4 | CC(=O)NC(Cc1ccccc1)C(=O)O (stereo not given) | – | inconclusive: 21.1 µM [cytotoxic, single point] and inactive
5 | C=C1/C(=C/C=C2\CCC[C@@]3(C)C2CCC3[C@H](C)/C=C/[C@@H](O)C2CC2)C[C@@H](O)C[C@@H]1O (stereo not given in full) | inactive: 4.37% | –
6 | CCC(C)/C=C(C)/C=C/C1=CC2=CC(=O)C(C)(O)C(OC(C)=O)C2CO1 (stereo not given) | – | inconclusive: 11.4 µM [cytotoxic, partial curve]
7 | CC(=O)OC1CCC2(C)C(CCC3(C)C2CC=C2C4CC(C)(C)CCC4(C)CCC23C)C1(C)C(=O)O (stereo not given) | – | inconclusive: 15.9 µM [cytotoxic, single point]
8 | Cc1cccc(NC(=O)CN2CCC(c3ccccn3)CC2)c1 | – | inconclusive: 20.6 µM [cytotoxic, partial curve, poor fit]
9 | Nc1c(I)cc(I)c(C(=O)N(CCC(=O)O)c2ccccc2)c1I | – | inconclusive: 18.8 µM [cytotoxic, single point]
10 | O=C(Nc1cccnc1)c1cc(-c2ccnc(F)c2)ccc1OCc1ccccc1 | – | inconclusive: 11.8 µM [cytotoxic, partial curve]
